The target of test [1] is T1, GST-SNAP25b(111–120) (rat).
T1 sequence: GVVASQPARV
Kind of test: pull-down; Fig. 5A: 125 μg GST fusion protein on glutathione-Sepharose with HEK293T lysates of HA-tagged proteins (Tris buffer, 1% Triton X-100), overnight at 4 °C, washes with Tris buffer with 0.5% Triton X-100; HA blot; only the target purified.

Amino acid sequences for entries named in this document (tags omitted). Residues count along the entry.
UniProt P60881: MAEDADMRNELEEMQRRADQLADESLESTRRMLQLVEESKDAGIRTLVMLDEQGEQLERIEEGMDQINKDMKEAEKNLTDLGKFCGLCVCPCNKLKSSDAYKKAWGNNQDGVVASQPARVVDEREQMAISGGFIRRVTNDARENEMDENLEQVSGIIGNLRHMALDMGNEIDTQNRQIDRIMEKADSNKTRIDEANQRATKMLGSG
UniProt Q80TN5, residues 1-300: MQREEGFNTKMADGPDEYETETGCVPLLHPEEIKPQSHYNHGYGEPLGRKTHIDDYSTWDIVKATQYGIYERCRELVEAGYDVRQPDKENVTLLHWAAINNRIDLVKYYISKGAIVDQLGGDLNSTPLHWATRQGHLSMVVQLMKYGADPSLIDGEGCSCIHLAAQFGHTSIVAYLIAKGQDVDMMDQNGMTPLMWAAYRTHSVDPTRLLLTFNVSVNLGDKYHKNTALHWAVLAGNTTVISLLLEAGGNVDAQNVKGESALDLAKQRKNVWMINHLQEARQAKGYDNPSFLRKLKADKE

Test [2] deals with GST-SNAP25bFL (full-length GST-tagged SNAP25b) (rat) (UniProt P60881). The test is described as above.
Test [3] addresses T1, GST-SNAP25b(111–120) (rat). Put plainly: pull-down; Fig. 5B: 125 μg GST fusion protein on glutathione-Sepharose with HEK293T lysates of HA- or FLAG-tagged proteins (Tris buffer, 0.5% Triton X-100), overnight at 4 °C, washes with Tris buffer; HA or FLAG blot; only the target purified.
In test [4] the target is T2, GST-IRAP(78–109) (UniProt P97629).
T2 sequence: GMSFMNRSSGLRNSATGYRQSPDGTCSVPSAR
The description is as above.

These are yes or no findings as the source states them, for the method shown. In cells and extracts the contact can be indirect. Some results given as binding are weak or reduced against the parent protein; the word gives no strength. Where a sequence is shown, tags or fusion partners need not be part of it.

This note sets out measurements from article PMC4571948, “Identification of a Novel Sequence Motif Recognized by the Ankyrin Repeat Domain of zDHHC17/13 S-Acyltransferases*” (The Journal of Biological Chemistry, 2015).

For the molecule “HA-zD17(301X) (HA-tagged AR-containing fragment of zDHHC17) (from UniProt Q80TN5 1-300) (domain or fragment)”, the binding entry in test [1], in test [2] and in test [3] was “binds” throughout.

B1: FLAG-TANK2 (TAnkyrase-2) (enzyme, UniProt Q9H2K2 1-1166)
chain: MSGRRCAGGGAACASAAAEAVEPAARELFEACRNGDVERVKRLVTPEKVNSRDTAGRKSTPLHFAAGFGRKDVVEYLLQNGANVQARDDGGLIPLHNACSFGHAEVVNLLLRHGADPNARDNWNYTPLHEAAIKGKIDVCIVLLQHGAEPTIRNTDGRTALDLADPSAKAVLTGEYKKDELLESARSGNEEKMMALLTPLNVNCHASDGRKSTPLHLAAGYNRVKIVQLLLQHGADVHAKDKGDLVPLHNACSYGHYEVTELLVKHGACVNAMDLWQFTPLHEAASKNRVEVCSLLLSYGADPTLLNCHNKSAIDLAPTPQLKERLAYEFKGHSLLQAAREADVTRIKKHLSLEMVNFKHPQTHETALHCAAASPYPKRKQICELLLRKGANINEKTKEFLTPLHVASEKAHNDVVEVVVKHEAKVNALDNLGQTSLHRAAYCGHLQTCRLLLSYGCDPNIISLQGFTALQMGNENVQQLLQEGISLGNSEADRQLLEAAKAGDVETVKKLCTVQSVNCRDIEGRQSTPLHFAAGYNRVSVVEYLLQHGADVHAKDKGGLVPLHNACSYGHYEVAELLVKHGAVVNVADLWKFTPLHEAAAKGKYEICKLLLQHGADPTKKNRDGNTPLDLVKDGDTDIQDLLRGDAALLDAAKKGCLARVKKLSSPDNVNCRDTQGRHSTPLHLAAGYNNLEVAEYLLQHGADVNAQDKGGLIPLHNAASYGHVDVAALLIKYNACVNATDKWAFTPLHEAAQKGRTQLCALLLAHGADPTLKNQEGQTPLDLVSADDVSALLTAAMPPSALPSCYKPQVLNGVRSPGATADALSSGPSSPSSLSAASSLDNLSGSFSELSSVVSSSGTEGASSLEKKEVPGVDFSITQFVRNLGLEHLMDIFEREQITLDVLVEMGHKELKEIGINAYGHRHKLIKGVERLISGQQGLNPYLTLNTSGSGTILIDLSPDDKEFQSVEEEMQSTVREHRDGGHAGGIFNRYNILKIQKVCNKKLWERYTHRRKEVSEENHNHANERMLFHGSPFVNAIIHKGFDERHAYIGGMFGAGIYFAENSSKSNQYVYGIGGGTGCPVHKDRSCYICHRQLLFCRVTLGKSFLQFSAMKMAHSPPGHHSVTGRPSVNGLALAEYVIYRGEQAYPEYLITYQIMRPEGMVDG
As for B1, the binding entry in test [3] was “no binding”; in test [4], “binds”.

B2: HA-zD13(290X) (HA-tagged AR-containing fragment of zDHHC13) (domain or fragment, UniProt Q9CWU2 1-289)
chain: MEGPGLGSQCRNHSHGSHVPGFGRHGICVHENKELAKAKEILPLIEDSSNCDIVKATQYGIFERCKELVEAGYDVRQPDRENVSLLHWAAINNRLELVKFYISKGAVIDQLGGDLNSTPLHWAIRQGHLPMVILLLQHGADPTLIDGEGFSSIHLAVLFQHMPIIAYLISKGQSVNMTDVNGQTPLMLSAYKVIGPEPTGFLLKFNPSLSVVDKTHQNTPLHWAVAAGNVSAVDKLLEAGSSLDIRNAKGETPLDMALQSKNQLISHMLRTEAKMRANKQFRLWRWLHK
Regarding B2, the binding entry in test [1], in test [2] and in test [3] was “binds” throughout.
